The assay has as its system NCI-H322M lung. Briefly: inhibition of tumour cell growth, NCI panel, 48 h.

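Dose response: 5 concentrations. Exposure: 48 h. Format: 96-well plates. Endpoint: linear interpolation; highest concentration if not reached. Abbreviation: GI50, concentration required for 50% inhibition of growth. At the TGI there is no net growth.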

As for `C=C1C(=O)O[C@H]2C[C@@]3(C)[C@H](O)CCC(=C)[C@@H]3[C@@H](OC(C)=O)[C@H]12`, the TGI was found to be 42.5 µM.

In turn, `CC(=O)c1cc2c(s1)C(=O)c1ccccc1C2=O` gave a TGI of over 100 µM.

In turn, `Fc1cccc(Cl)c1/C=N\N=C1c2ccccc2-c2ccccc21` displayed a TGI of over 100 µM.

Molecule `CCOC(=O)CC1NC(=O)CS1` (stereo not given) showed a TGI of over 100 µM.

As for `COc1cc(Cn2c(-c3nonc3N)nc3ccccc32)ccc1C`, the GI50 was 2.45 µM and the TGI was over 100 µM.

For `O=[N+]([O-])c1ccc2c(c1)[O][Sn]([I])([I])[O]2`, the GI50 was over 100 µM and the TGI is over 100 µM.

With `Cc1nn(-c2ccccc2)c(-c2ccccc2[N+](=O)[O-])c1CC#N`, the TGI is over 100 µM.

The molecule `Nc1cc(N2CCCC2)nc(=O)n1Cc1ccccc1` had a TGI of over 100 µM.

Turning to `Cc1c(-c2ccccc2)c(C#N)c2nnc(C(N)=O)c(N)n12`, the TGI was over 100 µM.

Molecule `CCOC(=O)COS(=O)(=O)C(F)(F)F` returned a TGI of over 100 µM.

With `O=c1oc2ccc(Cl)cc2cc1-c1cn2cc(Cl)ccc2n1`, the TGI was over 100 µM.

For `COc1cccc(-c2cc(=O)c3ccc(C)nc3[nH]2)c1`, the TGI is over 100 µM.

Consider `Cc1c(Cl)cccc1NC(=O)CC1C(=O)Nc2ccccc2S1(=O)=O` (stereo not given), for which the TGI was determined as 46.1 µM.

For `CSc1c(C#N)c2n(c3ccccc13)c1ccccc1[n+]2C`, the TGI was over 100 µM.

Take `O=C(N[C@H]1c2ccsc2/C(=N/O)[C@H]1O)C(F)(F)F`: the TGI was over 100 µM.

The molecule `NCCCCNCCCNC(=O)c1nc(-c2csc(CCN)n2)sc1Cl` gave a TGI of over 100 µM.

On to `Cc1cc(N/N=C/c2nc(-c3ccc(Cl)cc3)oc2C)c2cc(Cl)ccc2n1`, for which the GI50 is 3.08 µM and the TGI came out at 11.5 µM.

Regarding `C[n+]1c2ccccc2c(C(=O)Nc2ccc(S(=O)(=O)N=C(N)N)cc2)c2ccccc21`, the TGI is over 100 µM.

With `S=c1nc(-c2cccnc2)[nH][nH]1`, the TGI is over 100 µM.

For the molecule `O=C1CC(=O)OC(c2ccc([N+](=O)[O-])cc2)O1`, the GI50 was 3.53 µM and the TGI stood at 14.4 µM.

In the case of `CCc1ccc2c(c1)CC1(C2)Cc2cc3c(cc2C1)C(=O)CC3` (stereo not given), the TGI stood at 75.1 µM.

The record behind these values is PubChem BioAssay (NCI).
